The test relates to MIWI (PIWIL1) piRISC loaded with L1MC piRNA (30 nt). Put plainly: pre-steady-state target cleavage rate (min^-1); MIWI and MILI are mouse PIWI proteins and EfPiwi is from a freshwater sponge; tags in brackets are library labels; higher = faster piRNA-guided slicing of the target. To be noted: guide: L1MC piRNA 5'p-UAACUAAAUACUAUGCAAGCUGUAGGUCCU
An outline of the steps:
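The pre-steady-state cleavage rate was obtained by Cleave-'n-Seq with a burst-and-steady-state fit. A transcribed, DNA-blocked target RNA library (0.1 nM) was mixed with 1 nM active affinity-purified piRISC carrying one synthetic guide, with or without 500 nM GTSF1 partner protein, in HEPES–potassium acetate buffer at 33 °C for 0–8 or 0–960 min. Uncleaved targets were sequenced and normalised to depth and to weakly complementary targets, with three trials pooled and k3 capped at 0.0001 min^-1.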

The mark [1] stands for this setting: auxiliary factor: 500 nM mouse GTSF1.
Setting [2] is: auxiliary factor: none (no GTSF1).

± gives the standard deviation. The entries are a selection whose mix differs from that of the whole data set.

In the case of UCGACCUACACGUUGCAUAGUAUUUACAAA, the “pre-steady-state target cleavage rate” value under setting [1] is 0.256 ± 0.027.
The same measure, in the same setting: then UCCUGGUACAGCUUGCAUAGUAUUAACAAA, with 0.137 ± 0.023; and UCCACCUACAGCUUGCAUAGUAUUUACAAA, with 0.296 ± 0.044.
On the same count and under the same terms, under UCCUGGAUGUGCUUGCAUAGUAUUAUCUUA stands 0.00518 ± 0.0044.
Same read-out and setting: under UCCUGGAUGAGCUUGCAUAGUAAAAAGUUA stands 0.0147 ± 0.0047.
Turning to UCCACCUACAGGAAGCAUAGUAUUUUCAAA, the “pre-steady-state target cleavage rate” value under setting [1] came out at 0.0423 ± 0.01.
The same measure, in the same setting: then UCCUGGAUGUCGUUGCAUAGUAUUUGAGUUA, with 0.0106 ± 0.0039; and UCCACCUACAGCUUCCAUAGUAUUUAGUAA, with 0.151 ± 0.048.
Regarding “UCCUGGAUGUCGAACCAUAGUAAAAUCAAA [g9:g15:cont:t1A]”, under setting [2], the “pre-steady-state target cleavage rate” value was less than 0.0001.
Take UCCUCCUACAGCAACCAUAGUAUUUAGUUA: the “pre-steady-state target cleavage rate” value under setting [1] was 0.188 ± 0.026.
Still for that read-out and setting: under UCCACCUACUCCUUGCAUAGUAUUUACAAA stands 0.261 ± 0.045; under UCCACCUACAGCAAGCAUAGUAUUUAGAAA, 0.243 ± 0.035.
For UCGACCUACAGCUUGGAUAGUAUUUACAAA, under setting [1], the “pre-steady-state target cleavage rate” value was determined as 0.179 ± 0.036.
Turning to AGGAUCCUACAGCUUGCAUAGUAUUUAGUUA, the “pre-steady-state target cleavage rate” value under setting [2] is 0.118 ± 0.023.
Regarding UCGACCUACAGCUUGCAUAGUAAUUACAAA, under setting [1], the “pre-steady-state target cleavage rate” value was 0.298 ± 0.048.
Still for that read-out and setting: under UCCUGGAUCAGCUUGGAUAGUAUUUAGAAA stands 0.059 ± 0.016; under UCCUGGAUGAGCUUGCAAAGUAUUUACAAA, 0.0453 ± 0.012.
Consider UGGACCUACAGGUUCCAUAGUAUUUAGUUA, for which the “pre-steady-state target cleavage rate” value under setting [1] amounted to 0.0909 ± 0.03.
On the same count and under the same terms, under UCCACCUACACGAUGCAUAGUAUUUAGAAA stands 0.223 ± 0.038; under UCCUGGAUCAGCUUGCAUUCUAUUUACAAA, 0.00476 ± 0.0046; under UCCUCCUACAGCUUGCAUUCAAUUUAGUUA, 0.0119 ± 0.0059.
As to UCCUGGAUGUCGAUGCAUAGUAUUUGGUUA, under setting [1], the “pre-steady-state target cleavage rate” value was 0.0108 ± 0.004.
Same read-out and setting: then UCCUGGAUGUCCUAGCAUAGUAAUUAGUUA, with 0.00528 ± 0.0045; and UCGACCUACAGCUUGCAUAGUAUUAUGAAA, with 0.407 ± 0.059.
On the same count and under the same terms, under ACCUCCUACAGCUUGCAUAGUAUUUACAAA stands 0.466 ± 0.052; under UCCUGGAACACGUUGCAUAGUAUUUAGAAA, 0.0137 ± 0.0067; under UCCUGGAUGUCGAACGUAUCUAUUAUCUUA, less than 0.0001.
Same read-out and setting: then UCCUGGAUGAGGUUGCAUAGAAUUUAGUUA, with 0.0149 ± 0.0068.
As to UCCUGGAUGUCGAACGUAUGUAUAUAGUUA, the “pre-steady-state target cleavage rate” value under setting [1] was less than 0.0001.
Consider UCCUGGAUGUCGUUGCAUAGUAUUUAGUCA, for which, under setting [1], the “pre-steady-state target cleavage rate” value was found to be 0.00397 ± 0.0038.
Turning to UGGACCUACAGCUUGCAUAGUAUAUACAAA, under setting [1], the “pre-steady-state target cleavage rate” value was determined as 0.177 ± 0.042.
On the same count and under the same terms, under UCCACCUACAGCUUGCAUACAUUUUAGUUA stands 0.00856 ± 0.005; under UCCUGGAUGUGCUUGUCAUAGUAUUUAGUUA, 0.0124 ± 0.0039.
On the same count and under the same terms, then UCCUCCUACAGCUACGAUAGUAUUUAGUUA, with 0.108 ± 0.017; and UGGACCUACACGAUGCAUAGUAUUUACAAA, with 0.0726 ± 0.012.
Take UCCUGGAUGUCGAACGUAACUAUUUACUUA: under setting [1], the “pre-steady-state target cleavage rate” value is less than 0.0001.
Regarding UGGACCUACAGCUUGCAUAGUAUAUUAGUUA, the “pre-steady-state target cleavage rate” value under setting [2] stood at 0.0409 ± 0.0089.
As for UCCUGGAACAGCUUGCUAUAGUAUUUAGUUA, under setting [1], the “pre-steady-state target cleavage rate” value turned out to be 0.0192 ± 0.006.
Consider UCCUGGUACAGCUUGCAUAGUAAAAACAAA, for which the “pre-steady-state target cleavage rate” value under setting [1] is 0.0337 ± 0.014.
Still for that read-out and setting: then UCCUGGAUCAGCUUCCAUUGUAUUUAGUUA, with 0.0154 ± 0.0063; and UCCUCCUACUGCUUGCAUAGUAUUUUCAAA, with 0.14 ± 0.024.
Turning to UCCACCUACAGCUUGCUUAGUAUUUAGAAA, under setting [1], the “pre-steady-state target cleavage rate” value came out at 0.226 ± 0.037.
Take UCCUGGAACAGCUUGCAUAGUAUAAUGAAA: the “pre-steady-state target cleavage rate” value under setting [1] was 0.136 ± 0.033.
Turning to UGGACCUACAGCUUGCUAAGUAUUUUCAAA, the “pre-steady-state target cleavage rate” value under setting [1] worked out at 0.00364 ± 0.0036.
On the same count and under the same terms, then UCGACCUACAGGAAGCAUAGUAUUUUCAAA, with 0.0543 ± 0.015; and UCCACCUACAGCUUGCAUACAAUUUAGUAA, with 0.021 ± 0.01.
Take UCCUGGAUGUCGUUGCAUUGUAUUUAGAUA: the “pre-steady-state target cleavage rate” value under setting [2] was less than 0.0001.
As for UCCUGGAUGUCGAUCGCAUAGUAUUUAGUUA, under setting [1], the “pre-steady-state target cleavage rate” value is 0.00822 ± 0.0034.
Consider UCCUGCUACAGCUUGCAUAGUAUUUUCUAA, for which the “pre-steady-state target cleavage rate” value under setting [1] was 0.218 ± 0.037.
With UCCUGGAUGUCGAACCAUAGUAUUUACAUA, the “pre-steady-state target cleavage rate” value under setting [2] was less than 0.0001.
For “UCCUGGAUGUCGAACGUAUCAAUUUAGUUU [g2:g9:cont:t1U]”, the “pre-steady-state target cleavage rate” value under setting [2] is less than 0.0001.
With “UCCUGGAUGUCGAACCAUAGUAUUUAGUUC [g2:g15:cont:t1C]”, the “pre-steady-state target cleavage rate” value under setting [2] was less than 0.0001.
The same measure, in the same setting: then UCCUGGAUGUCGAACGAUAGUAAUUACUUA, with less than 0.0001; and UCCUGGAUGUCGAACCAUACUAUUUACUUA, with less than 0.0001; and UCCUGGAUGUCGAACGAUAGUAUUUAUUUA, with less than 0.0001.
Regarding UGUGACCUACAGCUUGCAUAGUAUUUAGUUA, the “pre-steady-state target cleavage rate” value under setting [2] is 0.0959 ± 0.018.
With AGGACCUACAGCUUGCAUAGUUAUUUCAAA, the “pre-steady-state target cleavage rate” value under setting [1] was 0.243 ± 0.079.
Still for that read-out and setting: under UCCUGGAUGAGCUUCCAUAGUAUUUAGAUA stands 0.00762 ± 0.0045; under UCCUGGAUCAGCUUCCUUAGUAUUUAGUUA, 0.0311 ± 0.007.
Regarding UCCUGCUACAGCAAGCAUAGUAUUUUCAAA, the “pre-steady-state target cleavage rate” value under setting [1] was found to be 0.182 ± 0.046.

(Values after the supplement of paper PMC10338343.)
